# Experiments:
# [1] = Stability of trans-cyclooctene derivatives in PBS; format: physicochemical; conditions: PBS buffer, 20° C., in the dark
# [2] = Activation of doxorubicin prodrugs 38 by tetrazines (HPLC-MS); conditions: 20° C.
# [3] = system: A431 squamous carcinoma cells; assay: Cell proliferation assay (MTT) with doxorubicin prodrug minor-38 and tetrazine 7; format: cell-based; conditions: Homo sapiens, A-431, 72 h, A431 cell line
# [4] = Activation of doxorubicin prodrugs 50 and 51 by tetrazines (HPLC-MS); conditions: after 1 hr at 20° C.
# Excerpt: The half-life time of this release was 4 days.
# [5] = system: A431 squamous carcinoma cells; assay: Cell proliferation assay (MTT) with doxorubicin prodrug 50 and tetrazine 29; format: cell-based; conditions: Homo sapiens, A-431, 6 h, A431 cell line, 6 h incubation at 37° C. followed by medium replacement
# Procedure: In a parallel experiment, a solution of tetrazine 29 (2 mM in PBS) was serially diluted (from 1 mM to 1 nM) in pre-warmed culture medium and added to A431 cells in a 96-well plate, which was incubated at 37° C. for 72 hrs.
# [6] = activator tetrazine 7 (equimolar, c=25 µM), PBS, 16 hr
compound,measurement,setting,value
"O=C(NCc1ccccc1)OC1/C=C/CCCCC1 (stereo not drawn) [32 major isomer, (E)-cyclooct-2-en-1-yl benzylcarbamate]",half-life at 83 µM,[1],> 20 days
"Cc1cc(C)cc(NC(=O)OC2/C=C/CCCCC2)c1 (stereo not drawn) [33 minor isomer, (E)-cyclooct-2-en-1-yl(3,5-dimethylphenyl)carbamate]",half-life at 83 µM,[1],> 20 days
"COc1cccc2c1C(=O)c1c(O)c3c(c(O)c1C2=O)C[C@@](O)(C(=O)CO)C[C@@H]3OC1CC(NC(=O)OC2/C=C/CCCCC2)[C@H](O)C(C)O1 (some centres unmarked) [38 major, (E)-cyclooct-2-en-1-yl doxorubicin carbamate]",conversion of the DA-reaction,[2]; [6],40%
same,release of doxorubicin (yield),[2]; [6],20%
"COc1cccc2c1C(=O)c1c(O)c3c(c(O)c1C2=O)C[C@@](O)(C(=O)CO)C[C@@H]3OC1CC(NC(=O)OC2/C=C/CCCCC2)[C@H](O)C(C)O1 (some centres unmarked) [38 minor, (E)-cyclooct-2-en-1-yl doxorubicin carbamate]",IC50,"[3]; + tetrazine 7 (10 μM, constant amount), 72 hr",278 ± 22 nM
same,IC50,"[3]; + tetrazine 7 (1.5 eq., serial dilutions), 72 hr",137 ± 12 nM
same,IC50,"[3]; compound alone, 72 hr incubation, ± standard error",3020 ± 486 nM
same,half-life at 83 µM,[1],> 20 days
same,release of doxorubicin (yield),"[2]; activator 3,6-bis(2-aminophenyl)-1,2,4,5-tetrazine (9), acetonitrile/PBS, 18 hr",90%
same,release of doxorubicin (yield),"[2]; activator tetrazine 7 (equimolar, c=25 μM), PBS, 4 hr",69%
COc1cccc2c1C(=O)c1c(O)c3c(c(O)c1C2=O)C[C@@](O)(C(=O)CO)C[C@@H]3OC1CC(NC(=O)OCc2ccc(OC(=O)NC3CC/C=C/CCC3N)cc2)C(O)C(C)O1 (some centres unmarked) [Prodrug 50],doxorubicin released,"[4]; activator 3,6-diphenyl-1,2,4,5-tetrazine",48%
same,doxorubicin released,"[4]; activator 3-(5-acetamido-2-pyridyl)-6-(2-pyridyl)-1,2,4,5-tetrazine (5)",30%
same,doxorubicin released,"[4]; activator 3-(5-butyramido-2-pyridyl)-6-(2-pyrimidyl)-1,2,4,5-tetrazine",20%
same,doxorubicin released,"[4]; activator 3-methyl-6-(2-pyridyl)-1,2,4,5-tetrazine (7)",52%
same,doxorubicin released,"[4]; activator 4-(1,2,4,5-tetrazin-3-yl)phenylmethanamine",50%
same,IC50,[5]; + tetrazine 29 (10 μM),49 ± 4 nM
same,IC50,[5]; compound alone,128 ± 17 nM
